# Source: the supplement of paper PMC8728848
# The other results are listed elsewhere or left out.
# Experiments:
# Assay in all cases: glycan array binding signal (z-score within array); higher = stronger binding
# Conditions in all cases: glycan notation: IUPAC condensed, linker removed
# Neu5Ac(a2-8)Neu5Ac = target: Neu5Ac(a2-8)Neu5Ac
# In short: (§1)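 Arrays were curated from the Consortium for Functional Glycomics database, 3228 in total, and kept only where the protein sequence was available. Binding is expressed as a within-array Z-score. This score was averaged across arrays of the same protein sequence at different concentrations or buffers and across linkers, and negative values can be read as non-binding.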
# [1] = target: Neu5Ac(a2-8)Neu5Ac(a2-3)Gal(b1-3)GalNAc(b1-4)[Neu5Ac(a2-3)]Gal(b1-4)Glc
# In short: as §1
# [2] = target: Neu5Ac(a2-8)Neu5Ac(a2-3)Gal(b1-3)GalNAc(b1-4)[Neu5Ac(a2-8)Neu5Ac(a2-3)]Gal(b1-4)Glc
# In short: as §1
# [3] = target: Neu5Ac(a2-8)Neu5Ac(a2-3)Gal(b1-4)Glc
# In short: as §1
# [4] = target: Neu5Ac(a2-8)Neu5Ac(a2-3)Gal(b1-4)GlcNAc
# In short: as §1
# [5] = target: Neu5Ac(a2-8)Neu5Ac(a2-3)[Gal(b1-3)GalNAc(b1-4)]Gal(b1-4)Glc
# In short: as §1
# [6] = target: Neu5Ac(a2-8)Neu5Ac(a2-3)[GalNAc(b1-4)]Gal(b1-4)Glc
# In short: as §1
# [7] = target: Neu5Ac(a2-8)Neu5Ac(a2-8)Neu5Ac
# In short: as §1
# [8] = target: Neu5Ac(a2-8)Neu5Ac(a2-8)Neu5Ac(a2-3)Gal(b1-4)Glc
# In short: as §1
# [9] = target: Neu5Ac(a2-8)Neu5Ac(a2-8)Neu5Ac(a2-3)[Gal(b1-3)GalNAc(b1-4)]Gal(b1-4)Glc
# In short: as §1
# [10] = target: Neu5Ac(a2-8)Neu5Ac(a2-8)Neu5Ac(a2-3)[GalNAc(b1-4)]Gal(b1-4)Glc
# In short: as §1
# [11] = target: Neu5Ac(a2-8)Neu5Ac(a2-8)Neu5Ac(a2-8)Neu5Ac(a2-3)[GalNAc(b1-4)]Gal(b1-4)Glc
# In short: as §1
# [12] = target: Neu5Ac(a2-8)Neu5Gc(a2-3)Gal(b1-4)GlcNAc
# In short: as §1
# [13] = target: Neu5Ac(b2-6)Gal(b1-4)GlcNAc
# In short: as §1
# Neu5Ac(b2-6)GalNAc = target: Neu5Ac(b2-6)GalNAc
# In short: as §1
# [14] = target: Neu5Ac9Ac(a2-3)Gal(b1-3)GlcNAc
# In short: as §1
# [15] = target: Neu5Ac9Ac(a2-3)Gal(b1-4)GlcNAc
# In short: as §1
# [16] = target: Neu5Ac9Ac(a2-6)Gal(b1-4)GlcNAc
# In short: as §1
# [17] = target: Neu5Gc(a2-3)Gal(b1-3)GlcNAc
# In short: as §1
# [18] = target: Neu5Gc(a2-3)Gal(b1-3)[Fuc(a1-4)]GlcNAc
# In short: as §1
# Neu5Gc(a2-3)Gal(b1-4)Glc = target: Neu5Gc(a2-3)Gal(b1-4)Glc
# In short: as §1
# [19] = target: Neu5Gc(a2-3)Gal(b1-4)GlcNAc
# In short: as §1
# [20] = target: Neu5Gc(a2-3)Gal(b1-4)GlcNAc(b1-3)Gal(b1-4)GlcNAc(b1-2)Man(a1-3)[Neu5Gc(a2-3)Gal(b1-4)GlcNAc(b1-3)Gal(b1-4)GlcNAc(b1-2)Man(a1-6)]Man(b1-4)GlcNAc(b1-4)GlcNAc
# In short: as §1
# [21] = target: Neu5Gc(a2-3)Gal(b1-4)[Fuc(a1-3)]GlcNAc
# In short: as §1
# [22] = target: Neu5Gc(a2-6)Gal(b1-4)GlcNAc
# In short: as §1
# Neu5Gc(a2-6)GalNAc = target: Neu5Gc(a2-6)GalNAc
# In short: as §1
# [23] = target: Neu5Gc(a2-8)Neu5Ac(a2-3)Gal(b1-4)GlcNAc
# In short: as §1
# [24] = target: Neu5Gc(a2-8)Neu5Gc(a2-3)Gal(b1-4)GlcNAc
# In short: as §1
# [25] = target: Neu5Gc(a2-8)Neu5Gc(a2-3)Gal(b1-4)GlcNAc(b1-3)Gal(b1-4)GlcNAc
# In short: as §1
# [26] = target: Neu5Gc(a2-8)Neu5Gc(a2-6)Gal(b1-4)GlcNAc
# In short: as §1
# [27] = target: Neu5Gc(b2-6)Gal(b1-4)GlcNAc
# In short: as §1
binder,measurement,setting,value
"DrGRIFIN (Danio rerio), Q6DGJ1 (protein) MTLRFEASCPDGLCPGWSVILKGETPPEASKFEINFLCDRDDRVAFHFNPRFTESDIICNSYMANRWGQEERCNHFPLGVEEPFQIEIYSDNDHFHVYIDKAKVMQYKHRVEDLKTITKLQVVNDVKISSLEITKKLFY",glycan array binding signal (z-score),Neu5Ac(a2-8)Neu5Ac,-0.131
same,glycan array binding signal (z-score),[1],-0.174
same,glycan array binding signal (z-score),[2],-0.162
same,glycan array binding signal (z-score),[3],-0.18
same,glycan array binding signal (z-score),[4],-0.125
same,glycan array binding signal (z-score),[5],-0.172
same,glycan array binding signal (z-score),[6],-0.146
same,glycan array binding signal (z-score),[7],-0.159
same,glycan array binding signal (z-score),[8],-0.178
same,glycan array binding signal (z-score),[9],-0.144
same,glycan array binding signal (z-score),[10],-0.185
same,glycan array binding signal (z-score),[11],-0.163
same,glycan array binding signal (z-score),[12],-0.172
same,glycan array binding signal (z-score),[13],-0.179
same,glycan array binding signal (z-score),Neu5Ac(b2-6)GalNAc,-0.135
same,glycan array binding signal (z-score),[14],-0.131
same,glycan array binding signal (z-score),[15],-0.192
same,glycan array binding signal (z-score),[16],-0.127
same,glycan array binding signal (z-score),[17],-0.223
same,glycan array binding signal (z-score),[18],-0.165
same,glycan array binding signal (z-score),Neu5Gc(a2-3)Gal(b1-4)Glc,-0.144
same,glycan array binding signal (z-score),[19],-0.208
same,glycan array binding signal (z-score),[20],-0.11
same,glycan array binding signal (z-score),[21],-0.167
same,glycan array binding signal (z-score),[22],-0.207
same,glycan array binding signal (z-score),Neu5Gc(a2-6)GalNAc,-0.148
same,glycan array binding signal (z-score),[23],-0.175
same,glycan array binding signal (z-score),[24],-0.16
same,glycan array binding signal (z-score),[25],-0.191
same,glycan array binding signal (z-score),[26],-0.187
same,glycan array binding signal (z-score),[27],-0.102
